Assay results as given in article PMC4336329 (PLoS ONE, 2015).
Hit rate of the full screen: of about 310,000 compounds, about 2,200 (0.71%) showed an effect of 50% or more. The effect is printed as a negative number. The list shows a part of the results.

The compounds below were run against human ether-à-go-go-related gene (hERG) potassium channel (human, UniProt Q12809) (assay: primary screen, population patch clamp on CHO cells stably expressing hERG).
human ether-à-go-go-related gene (hERG) potassium channel, sequence (Q12809 whole entry, looked up): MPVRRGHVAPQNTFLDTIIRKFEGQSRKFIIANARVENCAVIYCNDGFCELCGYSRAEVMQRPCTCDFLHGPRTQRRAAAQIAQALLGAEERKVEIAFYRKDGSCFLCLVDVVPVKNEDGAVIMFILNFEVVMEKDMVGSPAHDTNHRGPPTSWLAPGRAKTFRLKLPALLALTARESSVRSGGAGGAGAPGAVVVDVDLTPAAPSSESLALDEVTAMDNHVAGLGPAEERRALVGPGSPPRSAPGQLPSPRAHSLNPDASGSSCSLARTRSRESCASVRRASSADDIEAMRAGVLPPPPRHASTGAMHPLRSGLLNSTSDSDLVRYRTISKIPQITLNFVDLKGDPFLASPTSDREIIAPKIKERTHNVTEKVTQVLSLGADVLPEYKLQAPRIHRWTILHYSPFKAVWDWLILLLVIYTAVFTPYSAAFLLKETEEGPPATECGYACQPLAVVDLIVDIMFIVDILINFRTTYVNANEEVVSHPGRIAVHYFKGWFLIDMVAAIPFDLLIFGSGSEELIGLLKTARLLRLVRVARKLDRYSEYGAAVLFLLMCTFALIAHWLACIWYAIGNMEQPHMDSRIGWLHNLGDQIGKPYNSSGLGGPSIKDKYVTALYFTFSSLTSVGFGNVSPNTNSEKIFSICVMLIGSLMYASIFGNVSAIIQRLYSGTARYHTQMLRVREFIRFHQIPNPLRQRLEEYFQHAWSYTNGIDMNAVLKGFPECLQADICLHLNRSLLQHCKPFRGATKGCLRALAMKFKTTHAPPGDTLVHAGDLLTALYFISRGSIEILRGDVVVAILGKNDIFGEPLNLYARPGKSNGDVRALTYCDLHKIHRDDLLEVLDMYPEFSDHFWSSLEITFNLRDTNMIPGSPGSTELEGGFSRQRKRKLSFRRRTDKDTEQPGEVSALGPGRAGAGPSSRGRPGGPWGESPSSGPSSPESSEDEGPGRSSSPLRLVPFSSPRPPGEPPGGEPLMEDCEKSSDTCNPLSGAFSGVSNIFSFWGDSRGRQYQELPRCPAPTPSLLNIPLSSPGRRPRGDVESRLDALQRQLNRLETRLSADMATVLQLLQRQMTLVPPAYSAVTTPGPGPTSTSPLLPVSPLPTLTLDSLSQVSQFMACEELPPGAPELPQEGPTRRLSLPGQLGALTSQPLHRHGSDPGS

SMILES	hERG current change (%, negative = inhibition) at 1uM
COc1c(C)cc(C(=O)C2CCCN(C(=O)c3ccoc3)C2)cc1C (centres unmarked)	-6.91%
NS(=O)(=O)c1ccc(NC(=O)CSc2nnc(-c3ccc(O)cc3)o2)cc1	19.1%
Cn1cnnc1SCC(=O)Nc1ccc(N2CCOCC2)cc1	4.51%
COc1cc(-c2nc(CN3CCCCC3CCNC(C)=O)c(C)o2)ccc1F (centres unmarked)	-39.4%
Oc1ccc(-c2cn3c(n2)SCC3)cc1	10.6%
O=C1c2cnc3nc(SCc4ccc(Cl)cc4)nn3c2CC2c3ccccc3CCN12 (centres unmarked)	-5.51%
CC(C)COCC1CC2(CC(C)C(=O)CC2=O)C(=O)O1 (centres unmarked)	-1.38%
CC(=O)C1=C(O)C(=O)N(CCC(=O)O)C1c1cccc(F)c1 (centres unmarked)	15.7%
Oc1ccccc1C(=S)N1CCN(C(=S)c2ccccc2O)CC1	11.8%
CN1CCN(S(=O)(=O)c2ccc(N3CCN(S(=O)(=O)/C=C/c4ccccc4)CC3)nc2)CC1	9.61%
c1ccc(CSc2nnc(-c3ccco3)n2Cc2ccccc2)cc1	-6.43%
CN(CCO)C(=O)c1c(NC(=O)c2ccccc2)sc2c1CCCC2	7.5%
CN1CCN(C(=O)CN2C(=O)NC(C)(c3ccc4ccccc4c3)C2=O)CC1 (centres unmarked)	6.12%
Cn1c(/C=C/c2ccccc2)nc2ccccc2c1=O	12.2%
CCCCn1c(=O)[nH]c2nc3cc(N)ccc3nc2c1=O	7.25%
O=C(N/N=C/c1ccc2c(c1)OCO2)c1ccc(COCC(F)(F)C(F)F)cc1	9.11%
COc1ccccc1N(C)S(=O)(=O)c1ccc(Cl)c(C(=O)NCCCN2CCOCC2)c1	9.43%
Cc1ccc(-c2csc(-c3cc(C)on3)n2)cc1	21.4%
Cc1nnc(NC(=O)C2CCN(c3cnccn3)CC2)s1	6.88%
Cc1c(C(=O)N2CCOCC2)sc2ncn(CC(=O)N3CCC(C)CC3)c(=O)c12	2.81%
CC(=O)Nc1ccc(-c2cc(-c3ccc(NC(C)=O)cc3)nc(-c3ccccc3)n2)cc1	5.67%
CCCCNCc1cc(OCC)c(OCC)cc1Br.Cl	17%

SMILES	hERG current change (%, negative = inhibition) at 1uM
COc1ccc(C(=O)Nc2cccc(C(=O)N3CCCCC3)c2)cc1	13.9%
O=C(c1cccc2ccccc12)N1CCN(c2ccccc2F)CC1	6.94%
O=C(CN1CCCC1)Nc1ccc([N+](=O)[O-])cc1	-7.9%
O=C1OCc2cccc([N+](=O)[O-])c21	12.8%
COC(=O)c1ccc(-n2c(C)cc(C(=O)COC(=O)CNS(=O)(=O)c3ccc(C)cc3)c2C)cc1	3.35%
COc1ccc(C(=O)NC(=S)Nc2ccc3c(c2)Cc2ccccc2-3)cc1	16.8%
Cc1ccc(C(=O)Nc2ccc3c(c2)OCO3)cc1Cl	16.6%
CC(Sc1nc2ccccc2s1)C(=O)c1c(N)n(C)c(=O)n(C)c1=O (centres unmarked)	16.8%
COc1ccc(N2C(=O)c3ccccc3NC2c2ccc(OC)c(Cn3cc([N+](=O)[O-])cn3)c2)cc1 (centres unmarked)	6.5%
COc1nc(NCc2cccnc2)nc(OC)n1	11%
COc1cc(CC(=O)Nc2cccc(C(F)(F)F)c2)cc(OC)c1OC	4.11%
Cl.O=C(c1ccccc1)C(CCC(CN1CCOCC1)C(=O)c1ccccc1)CN1CCOCC1 (centres unmarked)	3.47%
CCCCc1ccc(NC(=O)Nc2cc(C)nn2C)cc1	16.1%
CC(=O)NCCc1nc2ccccc2n1CCOc1ccccc1C	7.65%
O=C(OCc1ccccc1F)c1ccc2c(c1)-c1ccccc1C2=O	8.02%
O=c1c2cc(N3CCOCC3)ccc2[nH]c(=S)n1Cc1ccco1	-0.262%
Cc1c(CNC(=O)C2CC2)c(-n2cccc2)n(Cc2ccccc2)c1C	24.6%
COc1ccc2nc(SCC(=O)N(C)CC(=O)Nc3ccc(F)cc3)[nH]c2c1	2.15%
COc1cc(-c2nc3n(n2)C(c2cccc(OC)c2OC)C2=C(CCCC2=O)N3)cc(OC)c1OC (centres unmarked)	-11%
CCCCn1c(NS(=O)(=O)c2ccccc2)c(S(=O)(=O)c2ccc(C)cc2)c2nc3ccccc3nc21	4.02%
Cc1ccc(C)c(CN2C(=O)CSc3ccc(C(=O)N4CCCC4)cc32)c1	5.65%
COc1cc(CCC(=O)OCC(=O)Nc2ccccc2F)cc(OC)c1OC	21.2%

SMILES	hERG current change (%, negative = inhibition) at 1uM
O=C(NCC(=O)N(c1cccnc1)C(C(=O)NC1CCCC1)c1ccccc1F)c1ccco1 (centres unmarked)	6.92%
Cc1cc(C(F)F)n2nc(C(=O)Nc3cccc(S(=O)(=O)N4CCOCC4)c3)nc2n1	7.14%
c1ccc(-c2nccc(-c3ccc(-n4cnc5ccccc54)cc3)n2)nc1	-15.5%
Clc1ccccc1/C=C/C=N/Nc1nc(N2CCOCC2)nc(N2CCOCC2)n1	-4.27%
CCCn1nc(NS(C)(=O)=O)c2cc3cccc(C)c3nc21	3.57%
Cl.NC(=NC1CCCCC1)c1ccc([N+](=O)[O-])cc1	-33%
CCN(Cc1ccncc1)C(=O)c1ccc(Br)o1	5.46%
Cc1ccc(C)c2[nH]c(=O)c(CN(CC3CCCO3)S(=O)(=O)c3ccc4c(c3)OCCO4)cc12 (centres unmarked)	11.2%
O=C(COC(=O)CNC(=O)c1ccc(Cl)cc1)NC1CCCCCC1	17.4%
O=C(C1CCN(S(=O)(=O)c2ccc(F)cc2)CC1)N1CC=C(c2ccccc2)CC1	0.691%
CC1CCN(C(=O)C2CCCN(S(=O)(=O)c3cccc4nsnc34)C2)CC1 (centres unmarked)	7.06%
CN(C)S(=O)(=O)n1cc(/C=C(\NC(=O)c2ccccc2)C(=O)NCCCN2CCOCC2)c2ccccc21	14.2%
CCOC(=O)[C@@H]1[C@H]2COc3ccc(Br)cc3[C@@H]2N2C(=O)N(c3cccc(Cl)c3)C(=O)[C@]12C	13.8%
COc1ccc(S(=O)(=O)N2CCCCC2)cc1NC(=O)Cc1sc(C)nc1-c1ccc(F)cc1	3.12%
N#CCCn1c(SCC(=O)NCCc2ccc(F)cc2)nc2ccccc21	-10.8%
CC(Cc1ccccc1)NC(=O)CC(c1ccccc1)c1ccccc1O (centres unmarked)	13.1%
Cc1ccc(SCC(=O)OC(C)C(=O)NC2(C#N)CCCCC2)cc1 (centres unmarked)	11.5%
COc1ccc(CN2CCNC(=O)C2CC(=O)NCc2cnn(C)c2)cc1OC (centres unmarked)	4.85%
CCCOC(=O)c1cc(NC(=O)/C=C/c2ccccc2)ccc1O	12.6%
COc1ccc(CNC(=O)CSc2nnc(C)c(=O)[nH]2)cc1	2.84%
Cc1cc(C(=O)Nc2ccccc2C(=O)O)ccc1NC(=O)COc1ccccc1Cl	3.04%
O=C(COC(=O)c1ccccn1)Nc1nc(-c2ccccc2)cs1	18.8%

SMILES	hERG current change (%, negative = inhibition) at 1uM
CCOc1ccc(C(=O)NCC(c2ccco2)N2CCc3ccccc3C2)cc1 (centres unmarked)	-7.04%
O=C(Nn1c(-c2ccccc2)nc2ccccc2c1=O)c1ccc([N+](=O)[O-])cc1	13.2%
CC1CCCCC1NC(=O)CO/N=C/c1ccccc1OC(F)F (centres unmarked)	-7.44%
COc1cc(/C=N\NC(=O)c2ccc(C)nc2)ccc1OC(=O)c1ccc2c(c1)OCO2	10.9%
CC(=O)Nc1ccc(NC(=O)C(C)OC(=O)CC2CCCCC2)cc1 (centres unmarked)	17.3%
Cc1ccc(-c2cnc(-c3ccncc3)o2)cc1	-14.5%
CCN(Cc1cnn(C)c1)Cc1nc(C(c2ccccc2)c2ccccc2)no1	4.82%
CCN(CC)C1=N/C(=C\c2ccc(OC)cc2)C(=O)N1c1ccccc1	3.33%
CCOc1ccc(Cl)cc1C1=CC(=O)C[C@H](c2ccc(OC)cc2)C1	-0.284%
Cc1cc(N2CCC(C(=O)Nc3ccc(F)cc3)CC2)nc(-c2ccccc2)n1	5.59%
COC(=O)CNc1c(-c2ccccc2)nc2ccc(Br)cn12	-6.27%
COC(=O)c1cccc(Cn2nnc3ccccc3c2=O)c1	-2.79%
COc1ccc(C2c3c(oc4ccccc4c3=O)C(=O)N2CCN2CCOCC2)cc1OC (centres unmarked)	9.36%
CN(CC(O)COc1ccccc1F)C1CCCCC1.Cl (centres unmarked)	10.8%
CC(C)(CNc1ccc([N+](=O)[O-])cc1C#N)N1CCOCC1	0.218%
Cn1c(=O)c2c(nc(SCc3ccc(F)cc3)n2C)n(C)c1=O	10.2%
O=C(NCCCCc1ccccc1)c1ccc(Br)o1	-0.674%
COc1ccc(CCN2CC(C(=O)NCc3nc(C)c(C)s3)CCC2=O)cc1 (centres unmarked)	-14.4%
Cc1nc2ccccc2nc1OCC(=O)N1CCN(c2ccccc2)CC1	5.88%
COc1ccc(CNC(=O)C(C)OC(=O)c2cccn2C)cc1 (centres unmarked)	0.715%
